This assay deals with NCI-H322M lung. The assay is described as follows: inhibition of tumour cell growth, NCI panel, 48 h.

Where “and” joins values, the source holds several entries; their conditions need not be identical. Equal values may be shown once.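 Assay format: 96-well plates, 48-hour exposure. GI50 = concentration required for 50% inhibition of growth. TGI: total growth inhibition.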

Regarding `COc1cc2oc3c(c(=O)c2c(O)c1/C=C/C(C)C)CCC(C)(C)Oc1cc(O)ccc1-3`, the TGI is 63.3 µM.
Still for that read-out and setting: for `CC(C)C(=O)OCC1CCCN2CCCCC12` (stereo not drawn) the value was > 100 µM.
The same measure, in the same setting: for `N#C/C(=C\c1cc(F)cc(F)c1)c1ccccn1` the value was > 100 µM.
For the compound `COc1ccc(/C=C/c2nnc(/C=C/c3ccc(OC)c(OC)c3)o2)cc1OC`, the GI50 was 14.4 µM and the TGI was > 100 µM.
The compound `CC1CSC(=S)N1C(=O)N1C(=S)SCC1C` (stereo not drawn) showed a TGI of 85.4 µM.
On the same count and under the same terms, as for `CC(=O)CC1(OC(=O)C2C(C=C(C)C)C2(C)C)C(=O)Nc2ccccc21` (stereo not drawn), the figure is > 100 µM.
As to `COc1ccc2c(c1)C(=O)c1c-2n(CCCCl)c(=O)c2cc(OC)c(OC)cc12`, the GI50 was 48.4 µM and the TGI is > 100 µM.
As to `N=c1oc2c(O)c(O)ccc2cc1C(N)=O`, the TGI was > 100 µM.
Same read-out and setting: for `C/C(CCn1[nH]c(=O)ccc1=O)=N\N=C(N)N` the value was > 100 µM.
Turning to `Cc1ccc(-c2c(C#N)[n+](=O)c3cc(Cl)c(Cl)cc3n2[O-])cc1`, the GI50 was 17 µM and the TGI came out at 33.8 µM.
Turning to `CN(C)C=Nc1ccc2[nH]c3ccccc3c2c1`, the TGI is > 100 µM.
As for `COc1ccc(CCn2c3c(c4c(O)cccc42)C(=O)c2ccccc2-3)cc1OC`, the GI50 is 37.2 µM and the TGI was > 100 µM.
As to `CN(C)c1ccc(/C=C/c2nc3ccccc3s2)cc1`, the TGI is > 100 µM.
The same measure, in the same setting: for `COC(=O)/C(C#N)=C(\Nc1ccccc1)N1CCCC1` the value was > 100 µM; for `CCOc1ccccc1NC(=O)CC1Sc2ccccc2NC1=O` (stereo not drawn), > 100 µM; for `COc1cccc(C2c3cc4c(cc3OC(NNc3ccccc3)C2C)OCO4)c1O` (stereo not drawn), 24.4 µM.
Consider `COP(C)(=O)C1=CCN(C(=O)OCC[Si](C)(C)C)CC1` (stereo not drawn), for which the TGI was > 100 µM.
The same measure, in the same setting: for `O=C1NC(N/N=C/c2c[nH]c3ccccc23)=N/C1=C\c1cccs1` the value was > 100 µM.
Consider `O=C(Nc1ccccc1-c1nn(CO)c(=S)n(CO)c1=O)C(F)(F)F`, for which the TGI is > 100 µM.
For the compound `Cc1cc2c([nH]1)CSc1cc(S(=O)(=O)c3ccccc3)c(=O)[nH]c1-2`, the GI50 was 26.2 µM and the TGI is > 100 µM.
The matching figures for `CCCCCCCCc1ccc(OCCOCC[N+](C)(C)CC)cc1` (tested in a mixture with another compound): 13.5 µM and 27.1 µM.
As to `COC1CC2C3/C(=N/Nc4ccc([N+](=O)[O-])cc4[N+](=O)[O-])CCC2(C)C3C1` (stereo not drawn), the TGI is > 100 µM.
Still for that read-out and setting: for `COc1ccc(-c2cc(-c3ccccc3)nc(/N=C\c3ccccc3)n2)c(O)c1` the value was > 100 µM.
On the same count and under the same terms, as for `Cc1ccc(Nc2nc3nc[nH]c3c(=O)[nH]2)cc1CO`, the figure is 37.1 µM; as for `O=[N+]([O-])c1cccnc1NCC1(CO)CCCC1`, 71.1 µM.
On the same count and under the same terms, for `O=C(c1c2c(cc3c1CC1(Cc4cc5c(cc4C1)CCCC5)C3)CCCC2)C(Br)Br` the value was > 100 µM; for `COc1ccc(C2N(c3ccc(F)c([N+](=O)[O-])c3)C(=O)N3C(c4ccc(OC)cc4)N(c4ccc(F)c([N+](=O)[O-])c4)C(=O)N23)cc1` (stereo not drawn), > 100 µM; for `O=C(N/S(=N/S(=O)(=O)c1ccc(Br)cc1)C(Cl)(Cl)Cl)c1ccccc1` (stereo not drawn), > 100 µM.
`CC(=O)OCC1OC(Sc2nc(-c3ccc(Cl)cc3)c(C#N)c(=O)n2C2OC(COC(C)=O)C(OC(C)=O)C(OC(C)=O)C2OC(C)=O)C(OC(C)=O)C(OC(C)=O)C1OC(C)=O` (stereo not drawn): the TGI is > 100 µM and 51.3 µM.
As for `COc1cc(C=O)cc(/C=N/N=C/c2ccccc2O)c1O`, the TGI was > 100 µM.
On the same count and under the same terms, as for `CCN(CC)CCC(=O)NC1c2ccccc2Oc2c(C)cccc21` (stereo not drawn), the figure is > 100 µM.
Take `COc1cc(C(=O)/C=C/c2ccc(OCCCCCC[P+](c3ccccc3)(c3ccccc3)c3ccccc3)cc2)cc(OC)c1OC`: the GI50 is 0.943 µM and the TGI is 2.16 µM.
Turning to `CCC(Cc1cnc2nc(N)nc(N)c2n1)c1ccc(C(=O)NC(CCC(=O)O)C(=O)O)cc1` (stereo not drawn), the TGI is > 100 µM.
On the same count and under the same terms, as for `CCOC(=O)COc1ccc(OCC(=O)OCC)c2c1C(=O)CCCC2=O`, the figure is > 100 µM.
Consider `Cc1cccc2c(C(=O)O[C@H](C(N)=O)[C@]3(C)CO3)cccc12`, for which the GI50 is 7.93 µM and the TGI was 19.6 µM.
As for `OC1CCN(c2c3ccccc3nc3ccccc23)CC1`, the TGI was determined as 66.4 µM.
Still for that read-out and setting: as for `N#C/C(=N/Nc1nc[nH]c1C(N)=O)C(=O)Nc1ccccc1`, the figure is > 100 µM.
In the case of `CS(=O)(=O)Nc1cc(-c2ccc3ncnc(Nc4ccc5c(cnn5Cc5cccc(F)c5)c4)c3c2)cnc1Cl`, the GI50 was 0.691 µM and the TGI came to 3.64 µM.
Take `CCC/C=C/C=C/C(=O)OC1C(C)C2(O)C3C=C(C)C(=O)C3CC(COC(C)=O)=CC2C2C(C)(C)C12OC(=O)C(C)C` (stereo not drawn): the TGI was > 100 µM.
The same measure, in the same setting: for `N#Cc1nn(C(N)=O)c(N)c1C#N` the value was > 100 µM.
As to `CC(=O)c1nc2ccccc2n1CCN1CCN(C)CC1`, the GI50 is 5.02 µM and the TGI was > 100 µM.
For `C[C@H]1COC(c2ccccn2)=N1`, the TGI was > 100 µM.
For `COCN1C(=O)C2CC(/C=C/C(N)=O)=CN2C(=O)c2ccccc21` (stereo not drawn), the TGI was > 100 µM.
Still for that read-out and setting: as for `OCc1nnn2c1CCC2`, the figure is > 100 µM; as for `O=C(CCCn1cnc([N+](=O)[O-])n1)NCCCn1ccnc1[N+](=O)[O-]`, > 100 µM.
With `COc1ccc(Nc2nccc(Nc3ccc4[nH]ncc4c3)n2)cc1`, the GI50 is 4.48 µM and the TGI amounted to 38.2 µM.
As to `CCCCc1ccc(-n2c(C)c(COC(=O)NC)c(COC(=O)NC)c2C)cc1`, the TGI stood at 23 µM.
For the compound `Cn1c(=O)c2nc3c4ccccc4c(=O)n(C)c3nc2n(C)c1=O`, the TGI was > 100 µM.
On to `O=C1/C(=C/c2ccc(Cl)cc2)COc2ccc(O)cc21`, for which the GI50 was 11.8 µM and the TGI was 25.8 µM.
For the compound `CC(=O)c1sc2c(c1OC(=O)c1ccc(Cl)cc1)c(=O)n(-c1ccccc1)c(=S)n2-c1ccccc1`, the TGI was > 29.7 µM.
Still for that read-out and setting: as for `COC(=O)C(CC(=O)c1ccccc1)c1ccccc1NC(C)=O` (stereo not drawn), the figure is > 100 µM; as for `CC(C)(/C=N\O)NO`, > 10 µM; as for `CC(C)CC(C(N)=O)C(=O)NC(Cc1ccccc1)NC(=O)CNC(=O)C(C)NC(=O)C(N)Cc1ccc(O)cc1` (stereo not drawn), > 100 µM.
On the same count and under the same terms, for `COc1cc2cc3c4c(cc(OC)c(OC)c4c2cc1OC)CCN3` the value was > 100 µM; for `CCOC(=O)/C=C(\C(=O)OCC)n1ccc(=O)n(Cc2cnnn2COCCOC(C)=O)c1=O`, > 72.2 µM; for `CCOC(=O)NC1C2CC(=O)C(O2)C1OCc1ccccc1` (stereo not drawn), > 100 µM.
Still for that read-out and setting: as for `COc1ccc2nc3ccccc3c(NCCN(C)CCCl)c2c1`, the figure is 3.4 µM; as for `CCOc1nc(OCC)nc(-c2cccn2-c2ccccc2)n1`, > 100 µM.
Consider `NC(N)=N/N=C(/CC1OC(=O)c2ccccc21)c1ccc2ccccc2c1` (stereo not drawn), for which the TGI amounted to 42.2 µM.
Same read-out and setting: as for `COC(=O)c1cc(-c2ccc(OC)c(OC)c2)oc1-c1ccc(OC)c(OC)c1`, the figure is > 100 µM.
Still for that read-out and setting: for `COc1cc(/C=N\O)cc(/C=N/O)c1O` the value was > 100 µM.
With `O=C1Nc2ccccc2/C1=C/C(=N/c1nnc(-c2ccccc2)s1)c1ccccc1`, the GI50 was 12.7 µM and the TGI came to 27 µM.
With `Cc1c(C(=O)OCc2ccccc2)[n+](=O)c2ccccc2n1[O-]`, the TGI was > 100 µM.
On the same count and under the same terms, as for `CCOC(=O)NC(Nc1ncn(C(NC(=O)OCC)(C(F)(F)F)C(F)(F)F)n1)(C(F)(F)F)C(F)(F)F`, the figure is > 100 µM.
Turning to `c1ccc(-c2c(-c3ccccc3)[n+](Cc3ccc4ccccc4c3)c(-c3cccc4ccccc34)n2Cc2ccc3ccccc3c2)cc1`, the GI50 is 0.355 µM and the TGI was determined as 1.3 µM.
With `COc1cc(Nc2cnc3cc(N)ccc3n2)cc(OC)c1OC`, the TGI is > 100 µM.
Take `NC1(C(=O)O)CCCC1C(=O)O` (stereo not drawn): the TGI is > 100 µM.
For `O=S1CCN(Cc2ccc(-c3ccc4ncnc(Nc5ccc(OCc6cccc(F)c6)c(Cl)c5)c4c3)o2)CC1`, the GI50 is 0.0622 µM and the TGI was > 25 µM.
With `CC(C)C1CNC2N1C(=O)C2(C)OCc1ccccc1` (stereo not drawn), the TGI was > 100 µM.
On to `C=C(C)C(=O)Oc1ccc(N=Nc2ccc(C)cc2)ccc1=O`, for which the GI50 is 2.4 µM and the TGI was determined as 9.56 µM.
The matching figures for `N#Cc1c(-c2ccccc2)cc(-c2ccccc2)n(CC(=O)NO)c1=O`: 12.4 µM and 90.9 µM.
As for `CCCC[C@@H](C)/C=C1\CN2CCC[C@H]2[C@@](C)(O)[C@@H]1O`, the TGI is > 100 µM.
Take `COCC(=O)Oc1cc(-c2ccc(C)cc2C)c(OC(=O)COC)c(-c2ccc(C)cc2C)c1`: the GI50 is 13.9 µM and the TGI was determined as 45.3 µM.
Regarding `O=C(N=Nc1c(O)[nH]c2c(Cl)cc(Cl)cc12)c1ccccc1O`, the TGI was found to be 32.4 µM.
`COc1ccccc1N1C(=O)/C(=C\c2cc(OC)c(OC)c(OC)c2)SC1c1ccccc1` (stereo not drawn): the TGI was > 100 µM.
Still for that read-out and setting: as for `O=C1C=CC(=O)c2c(O)c(NCCCN3CCOCC3)c(Cl)c(O)c21`, the figure is 3.3 µM; as for `ClCCC[Si]12OCCN(CCO1)CCO2`, > 100 µM.
On the same count and under the same terms, for `Cc1c2ccccc2cc2nc3ccccc3n12` the value was > 10 µM; for `C/C(=N\O)c1ccc2cc(Br)c3ccccc3c2c1`, 75.3 µM; for `C=CCNC(=O)N1CC(C)C(=O)Nc2ccccc21` (stereo not drawn), > 100 µM.
On the same count and under the same terms, for `O=C(NCCc1[nH]nc2c1C(=O)C=C(Nc1ccccc1)C2=O)OCc1ccccc1` the value was > 100 µM.
Consider `CC(=O)OCC1OC(n2c(-c3ccc(C)cc3)cc(-c3ccco3)c(C#N)c2=S)C(OC(C)=O)C(OC(C)=O)C1OC(C)=O` (stereo not drawn), for which the TGI was > 100 µM.
On the same count and under the same terms, as for `c1ccc(CNCCN2CCNCC2)nc1`, the figure is > 100 µM; as for `CC[C@@]1(O)C[C@H](OC2CC(N(C)C)C(OC3CC(O)C(OC4CC(O)C(O)C(C)O4)C(C)O3)C(C)O2)c2c(cc3c(c2O)C(=O)c2c(O)ccc(O)c2C3=O)[C@H]1C(=O)OC` (stereo partly drawn), 0.423 µM.
Turning to `CCOC(=O)c1nc2cc(C(F)(F)F)ccc2nc1Nc1cc(OC)c(OC)c(OC)c1`, the TGI was > 100 µM.
Still for that read-out and setting: for `O=C(O)c1cc2ccccc2c(N=Nc2ccc(S(=O)(=O)O)cc2)c1O` the value was > 100 µM; for `CC(C)CCNc1ncnc2[nH]ncc12`, > 100 µM.
Consider `Cn1ncc2c(Sc3ccc(Cl)cc3)ncnc21`, for which the GI50 was 16.1 µM and the TGI is > 100 µM.
Regarding `C/C(=N\NC(=O)Nc1ccccc1Cl)c1ccc(O)cc1`, the TGI was > 100 µM.
